# This is one part of the list.
# How the values were obtained:
# Assay in all cases: glycan array binding signal (z-score within array); higher = stronger binding
# Conditions in all cases: glycan notation: IUPAC condensed, linker removed
# [1] = target: Neu5Ac(a2-6)Gal(b1-4)GlcNAc(b1-2)Man(a1-6)[Gal(b1-4)GlcNAc(b1-2)Man(a1-3)]Man(b1-4)GlcNAc(b1-4)GlcNAc
# Summary of the method: (§1)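 The binding signal is a Z-score computed within each array and averaged over linkers. Arrays of the same protein sequence at different concentrations or buffers were also averaged together. Data originate from 3228 arrays in the Consortium for Functional Glycomics database, kept only where the protein sequence was available.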
# [2] = target: Neu5Ac(a2-6)Gal(b1-4)GlcNAc(b1-2)Man(a1-6)[GlcNAc(b1-2)Man(a1-3)]Man(b1-4)GlcNAc(b1-4)GlcNAc
# Summary of the method: as §1
# [3] = target: Neu5Ac(a2-6)Gal(b1-4)GlcNAc(b1-2)Man(a1-6)[Man(a1-3)]Man(b1-4)GlcNAc(b1-4)GlcNAc
# Summary of the method: as §1
# [4] = target: Neu5Ac(a2-6)Gal(b1-4)GlcNAc(b1-2)[Neu5Ac(a2-6)Gal(b1-4)GlcNAc(b1-4)]Man(a1-3)[GlcNAc(b1-4)][Neu5Ac(a2-6)Gal(b1-4)GlcNAc(b1-2)[Neu5Ac(a2-6)Gal(b1-4)GlcNAc(b1-6)]Man(a1-6)]Man(b1-4)GlcNAc(b1-4)GlcNAc
# Summary of the method: as §1
# [5] = target: Neu5Ac(a2-6)Gal(b1-4)GlcNAc(b1-2)[Neu5Ac(a2-6)Gal(b1-4)GlcNAc(b1-4)]Man(a1-3)[GlcNAc(b1-4)][Neu5Ac(a2-6)Gal(b1-4)GlcNAc(b1-4)Man(a1-6)]Man(b1-4)GlcNAc(b1-4)GlcNAc
# Summary of the method: as §1
# [6] = target: Neu5Ac(a2-6)Gal(b1-4)GlcNAc(b1-2)[Neu5Ac(a2-6)Gal(b1-4)GlcNAc(b1-6)]Man(a1-6)[Neu5Ac(a2-6)Gal(b1-4)GlcNAc(b1-2)Man(a1-3)][GlcNAc(b1-4)]Man(b1-4)GlcNAc(b1-4)GlcNAc
# Summary of the method: as §1
# [7] = target: Neu5Ac(a2-6)Gal(b1-4)GlcNAc(b1-3)Gal(b1-3)GlcNAc
# Summary of the method: as §1
# [8] = target: Neu5Ac(a2-6)Gal(b1-4)GlcNAc(b1-3)Gal(b1-4)GlcNAc
# Summary of the method: as §1
# [9] = target: Neu5Ac(a2-6)Gal(b1-4)GlcNAc(b1-3)Gal(b1-4)GlcNAc(b1-2)Man(a1-3)[Neu5Ac(a2-6)Gal(b1-4)GlcNAc(b1-3)Gal(b1-4)GlcNAc(b1-2)Man(a1-6)]GalNAc
# Summary of the method: as §1
# [10] = target: Neu5Ac(a2-6)Gal(b1-4)GlcNAc(b1-3)Gal(b1-4)GlcNAc(b1-3)Gal(b1-4)GlcNAc
# Summary of the method: as §1
# [11] = target: Neu5Ac(a2-6)Gal(b1-4)GlcNAc(b1-3)Gal(b1-4)GlcNAc(b1-3)Gal(b1-4)GlcNAc(b1-2)Man(a1-3)[Neu5Ac(a2-6)Gal(b1-4)GlcNAc(b1-3)Gal(b1-4)GlcNAc(b1-3)Gal(b1-4)GlcNAc(b1-2)Man(a1-6)]GalNAc
# Summary of the method: as §1
# [12] = target: Neu5Ac(a2-6)Gal(b1-4)GlcNAc(b1-3)Gal(b1-4)GlcNAc(b1-3)GalNAc
# Summary of the method: as §1
# [13] = target: Neu5Ac(a2-6)Gal(b1-4)GlcNAc(b1-3)Gal(b1-4)GlcNAc(b1-3)[Neu5Ac(a2-6)Gal(b1-4)GlcNAc(b1-3)Gal(b1-4)GlcNAc(b1-6)]GalNAc
# Summary of the method: as §1
# [14] = target: Neu5Ac(a2-6)Gal(b1-4)GlcNAc(b1-3)Gal(b1-4)GlcNAc(b1-6)[Gal(b1-3)]GalNAc
# Summary of the method: as §1
# [15] = target: Neu5Ac(a2-6)Gal(b1-4)GlcNAc(b1-3)Gal(b1-4)[Fuc(a1-3)]GlcNAc(b1-3)Gal(b1-4)[Fuc(a1-3)]GlcNAc
# Summary of the method: as §1
# [16] = target: Neu5Ac(a2-6)Gal(b1-4)GlcNAc(b1-3)GalNAc
# Summary of the method: as §1
# [17] = target: Neu5Ac(a2-6)Gal(b1-4)GlcNAc(b1-3)[Neu5Ac(a2-6)Gal(b1-4)GlcNAc(b1-6)]GalNAc
# Summary of the method: as §1
# [18] = target: Neu5Ac(a2-6)Gal(b1-4)GlcNAc(b1-6)GalNAc
# Summary of the method: as §1
# [19] = target: Neu5Ac(a2-6)Gal(b1-4)GlcNAc(b1-6)[Gal(b1-3)GlcNAc(b1-3)]Gal(b1-4)Glc
# Summary of the method: as §1
# [20] = target: Neu5Ac(a2-6)Gal(b1-4)GlcNAc(b1-6)[Gal(b1-3)]GalNAc
# Summary of the method: as §1
# [21] = target: Neu5Ac(a2-6)Gal(b1-4)GlcNAc6S
# Summary of the method: as §1
# Neu5Ac(a2-6)GalNAc = target: Neu5Ac(a2-6)GalNAc
# Summary of the method: as §1
# [22] = target: Neu5Ac(a2-6)GalNAc(b1-4)GlcNAc
# Summary of the method: as §1
# [23] = target: Neu5Ac(a2-6)GalNAc(b1-4)GlcNAc6S
# Summary of the method: as §1
# [24] = target: Neu5Ac(a2-6)GlcNAc(b1-4)GlcNAc
# Summary of the method: as §1
# [25] = target: Neu5Ac(a2-6)GlcNAc(b1-4)GlcNAc(b1-4)GlcNAc
# Summary of the method: as §1
# Neu5Ac(a2-8)Neu5Ac = target: Neu5Ac(a2-8)Neu5Ac
# Summary of the method: as §1
# [26] = target: Neu5Ac(a2-8)Neu5Ac(a2-3)Gal(b1-3)GalNAc(b1-4)[Neu5Ac(a2-3)]Gal(b1-4)Glc
# Summary of the method: as §1
# [27] = target: Neu5Ac(a2-8)Neu5Ac(a2-3)Gal(b1-3)GalNAc(b1-4)[Neu5Ac(a2-8)Neu5Ac(a2-3)]Gal(b1-4)Glc
# Summary of the method: as §1
# [28] = target: Neu5Ac(a2-8)Neu5Ac(a2-3)Gal(b1-4)Glc
# Summary of the method: as §1
# [29] = target: Neu5Ac(a2-8)Neu5Ac(a2-3)Gal(b1-4)GlcNAc
# Summary of the method: as §1
# [30] = target: Neu5Ac(a2-8)Neu5Ac(a2-3)[Gal(b1-3)GalNAc(b1-4)]Gal(b1-4)Glc
# Summary of the method: as §1
# [31] = target: Neu5Ac(a2-8)Neu5Ac(a2-3)[GalNAc(b1-4)]Gal(b1-4)Glc
# Summary of the method: as §1
# [32] = target: Neu5Ac(a2-8)Neu5Ac(a2-8)Neu5Ac
# Summary of the method: as §1
# [33] = target: Neu5Ac(a2-8)Neu5Ac(a2-8)Neu5Ac(a2-3)Gal(b1-4)Glc
# Summary of the method: as §1
# [34] = target: Neu5Ac(a2-8)Neu5Ac(a2-8)Neu5Ac(a2-3)[Gal(b1-3)GalNAc(b1-4)]Gal(b1-4)Glc
# Summary of the method: as §1
# [35] = target: Neu5Ac(a2-8)Neu5Ac(a2-8)Neu5Ac(a2-3)[GalNAc(b1-4)]Gal(b1-4)Glc
# Summary of the method: as §1
# [36] = target: Neu5Ac(a2-8)Neu5Ac(a2-8)Neu5Ac(a2-8)Neu5Ac(a2-3)[GalNAc(b1-4)]Gal(b1-4)Glc
# Summary of the method: as §1
binder,measurement,setting,value
"Gal 9 (Homo sapiens), O00182 (protein) MAFSGSQAPYLSPAVPFSGTIQGGLQDGLQITVNGTVLSSSGTRFAVNFQTGFSGNDIAFHFNPRFEDGGYVVCNTRQNGSWGPEERKTHMPFQKGMPFDLCFLVQSSDFKVMVNGILFVQYFHRVPFHRVDTISVNGSVQLSYISFQNPRTVPVQPAFSTVPFSQPVCFPPRPRGRRQKPPGVWPANPAPITQTVIHTVQSAPGQMFSTPAIPPMMYPHPAYPMPFITTILGGLYPSKSILLSGTVLPSAQRFHINLCSGNHIAFHLNPRFDENAVVRNTQIDNSWGSEERSLPRKMPFVRGQSFSVWILCEAHCLKVAVDGQHLFEYYHRLRNLPTINRLEVGGDIQLTHVQT",glycan array binding signal (z-score),[1],0.175
same,glycan array binding signal (z-score),[2],-0.323
same,glycan array binding signal (z-score),[3],-0.338
same,glycan array binding signal (z-score),[4],-0.287
same,glycan array binding signal (z-score),[5],-0.298
same,glycan array binding signal (z-score),[6],-0.293
same,glycan array binding signal (z-score),[7],0.704
same,glycan array binding signal (z-score),[8],0.148
same,glycan array binding signal (z-score),[9],5.41
same,glycan array binding signal (z-score),[10],0.358
same,glycan array binding signal (z-score),[11],0.794
same,glycan array binding signal (z-score),[12],0.8
same,glycan array binding signal (z-score),[13],0.144
same,glycan array binding signal (z-score),[14],0.213
same,glycan array binding signal (z-score),[15],-0.306
same,glycan array binding signal (z-score),[16],-0.319
same,glycan array binding signal (z-score),[17],-0.275
same,glycan array binding signal (z-score),[18],-0.262
same,glycan array binding signal (z-score),[19],-0.286
same,glycan array binding signal (z-score),[20],-0.255
same,glycan array binding signal (z-score),[21],-0.321
same,glycan array binding signal (z-score),Neu5Ac(a2-6)GalNAc,-0.322
same,glycan array binding signal (z-score),[22],-0.326
same,glycan array binding signal (z-score),[23],-0.291
same,glycan array binding signal (z-score),[24],-0.332
same,glycan array binding signal (z-score),[25],-0.318
same,glycan array binding signal (z-score),Neu5Ac(a2-8)Neu5Ac,-0.316
same,glycan array binding signal (z-score),[26],-0.287
same,glycan array binding signal (z-score),[27],-0.263
same,glycan array binding signal (z-score),[28],-0.306
same,glycan array binding signal (z-score),[29],-0.19
same,glycan array binding signal (z-score),[30],-0.316
same,glycan array binding signal (z-score),[31],-0.333
same,glycan array binding signal (z-score),[32],-0.323
same,glycan array binding signal (z-score),[33],-0.325
same,glycan array binding signal (z-score),[34],-0.303
same,glycan array binding signal (z-score),[35],-0.309
same,glycan array binding signal (z-score),[36],-0.31

# Source: the supplement of paper PMC8728848
